pIC50: −log10 of the molar value. Lines with a small IC50 respond at low doses; a fit beyond the top or the lowest dose is shown as a bound at that dose. AUC, from the same fit, is the share of area under the viability curve across the 256-fold dose range; the more sensitive the line, the further below 1. For some assays here: The top dose, if marked as inferred, was derived from the fitted curves, not read from the paper.
What was measured:
Test in all cases: Viability of human cancer cell lines after 72 h of drug (GDSC screen)
QL-XI-92 = compound: C=CC(=O)Nc1cc(NC(=O)c2ccc(C)c(NC(=O)c3ccno3)c2)cc(C(F)(F)F)c1 [QL-XI-92]; conditions: top dose 10.24 µM; top dose inferred
Experimental: (§1)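 Human cancer cell lines in 384-well plates, medium with 10% serum, drug for 72 h over a 256-fold dose range (nine 2-fold or five 4-fold steps up to the top dose). Adherent lines were fixed and stained with the nucleic acid dye Syto60, suspension lines read with resazurin; signal relative to control wells, capped at 0 and 100%. One two-parameter sigmoid per drug and line, fitted in a mixed model over all curves with the slope shared within a line.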

Vinorelbine = compound: CCC1=C[C@@H]2CN(C1)Cc1c([nH]c3ccccc13)[C@@](C(=O)OC)(c1cc3c(cc1OC)N(C)[C@H]1[C@@](O)(C(=O)OC)[C@H](OC(C)=O)[C@]4(CC)C=CCN5CC[C@]31[C@@H]54)C2 [Vinorelbine]; conditions: top dose 0.064 µM; top dose inferred
Experimental: as §1

AG-014699 = compound: CNCc1ccc(-c2[nH]c3cc(F)cc4c3c2CCNC4=O)cc1 [AG-014699]; conditions: top dose 5 µM; top dose inferred
Experimental: as §1

XL-184 = compound: COc1cc2nccc(Oc3ccc(NC(=O)C4(C(=O)Nc5ccc(F)cc5)CC4)cc3)c2cc1OC [XL-184]; conditions: top dose 5.12 µM; top dose inferred
Experimental: as §1

WHI-P97 = compound: COc1cc2ncnc(Nc3cc(Br)c(O)c(Br)c3)c2cc1OC [WHI-P97]; conditions: top dose 10.24 µM; top dose inferred
Experimental: as §1

Gefitinib = compound: COc1cc2ncnc(Nc3ccc(F)c(Cl)c3)c2cc1OCCCN1CCOCC1 [Gefitinib]; conditions: top dose 0.5 µM
Experimental: as §1

Phenformin = compound: N=C(N)NC(=N)NCCc1ccccc1 [Phenformin]; conditions: top dose 4000 µM; top dose inferred
Experimental: as §1

S-Trityl-L-cysteine = compound: N[C@@H](CSC(c1ccccc1)(c1ccccc1)c1ccccc1)C(=O)O [S-Trityl-L-cysteine]; conditions: top dose 5.12 µM; top dose inferred
Experimental: as §1

EHT 1864 = compound: O=c1cc(CN2CCOCC2)occ1OCCCCCSc1ccnc2cc(C(F)(F)F)ccc12 [EHT 1864]; conditions: top dose 10 µM; top dose inferred
Experimental: as §1

NU-7441 = compound: O=c1cc(N2CCOCC2)oc2c(-c3cccc4c3sc3ccccc34)cccc12 [NU-7441]; conditions: top dose 2 µM; top dose inferred
Experimental: as §1

Cell Line	AUC (QL-XI-92)	pIC50 (QL-XI-92)	AUC (Vinorelbine)	pIC50 (Vinorelbine)	AUC (AG-014699)	pIC50 (AG-014699)	AUC (XL-184)	pIC50 (XL-184)	AUC (WHI-P97)	pIC50 (WHI-P97)	AUC (Gefitinib)	pIC50 (Gefitinib)	AUC (Phenformin)	pIC50 (Phenformin)	AUC (S-Trityl-L-cysteine)	pIC50 (S-Trityl-L-cysteine)	AUC (EHT 1864)	pIC50 (EHT 1864)	AUC (NU-7441)	pIC50 (NU-7441)
NCI-H1304 (small cell lung carcinoma, suspension)	0.942	< 4.99	0.765	7.60	0.987	< 5.30	0.987	< 5.29	0.987	< 4.99	0.973	< 6.30	0.63	3.23	0.865	< 5.29	0.979	< 5.00	0.962	< 5.70
NCI-H1395 (lung adenocarcinoma, adherent)	0.956	< 4.99	0.862	< 7.19	0.853	< 5.30	0.968	< 5.29	0.98	< 4.99	0.98	< 6.30	0.943	< 2.40	0.872	< 5.29	0.758	5.34	0.952	< 5.70
NCI-H1417 (small cell lung carcinoma, suspension)	0.916	< 4.99	0.764	7.56	0.922	< 5.30	0.965	< 5.29	0.972	< 4.99	0.978	< 6.30	0.124	> 4.81	0.858	< 5.29	0.869	< 5.00	0.969	< 5.70
NCI-H1436 (small cell lung carcinoma, suspension)	0.935	< 4.99	0.745	7.64	0.984	< 5.30	0.896	< 5.29	0.985	< 4.99	0.985	< 6.30	0.782	2.71	0.711	5.86	0.97	< 5.00	0.985	< 5.70
NCI-H1648 (lung adenocarcinoma, adherent)	0.93	< 4.99	0.524	8.33	0.945	< 5.30	0.919	< 5.29	0.84	5.11	0.893	< 6.30	0.675	3.10	0.632	6.12	0.943	< 5.00	0.974	< 5.70
NCI-H1869 (lung squamous cell carcinoma, adherent)	0.981	< 4.99	0.895	< 7.19	0.985	< 5.30	0.975	< 5.29	0.862	< 4.99	0.93	< 6.30	0.758	2.81	0.873	< 5.29	0.966	< 5.00	0.936	< 5.70
NCI-H1876 (small cell lung carcinoma, adherent)	0.955	< 4.99	0.854	7.29	0.918	< 5.30	0.922	< 5.29	0.987	< 4.99	0.978	< 6.30	0.841	2.55	0.744	5.79	0.935	< 5.00	0.837	5.87
NCI-H2081 (small cell lung carcinoma, suspension)	0.945	< 4.99	0.824	7.39	0.985	< 5.30	0.989	< 5.29	0.989	< 4.99	0.97	< 6.30	0.838	2.53	0.974	< 5.29	0.958	< 5.00	0.983	< 5.70
NCI-H2141 (small cell lung carcinoma, suspension)	0.988	< 4.99	0.806	7.50	0.99	< 5.30	0.952	< 5.29	0.99	< 4.99	0.991	< 6.30	0.788	2.77	0.856	5.40	0.978	< 5.00	0.99	< 5.70
NCI-SNU-16 (stomach, suspension)	0.991	< 4.99	0.883	7.26	0.989	< 5.30	0.991	< 5.29	0.99	< 4.99	0.981	< 6.30	0.875	2.50	0.711	5.94	0.926	< 5.00	0.987	< 5.70
NEC8 (testis, adherent)	0.984	< 4.99	0.706	7.86	0.98	< 5.30	0.909	< 5.29	0.965	< 4.99	0.983	< 6.30	0.988	< 2.40	0.811	5.65	0.984	< 5.00	0.883	5.80
NH-12 (neuroblastoma, adherent)	0.972	< 4.99	0.802	7.44	0.955	< 5.30	0.881	< 5.29	0.965	< 4.99	0.92	< 6.30	0.984	< 2.40	0.981	< 5.29	0.97	< 5.00	0.978	< 5.70
NKM-1 (acute myeloid leukaemia, suspension)	0.796	5.31	0.484	8.44	0.894	< 5.30	0.17	7.51	0.978	< 4.99	0.95	< 6.30	0.496	3.61	0.87	5.30	0.942	< 5.00	0.924	< 5.70

From the supplement of paper PMC4967469
